Screen size: about 360,000 compounds; about 17,000 (4.7%) were called active. Inconclusive results, whose numbers are uncertain, are shown with a selection of clear calls. Cut-off read from the data, not from the text of the source: active = activity change below about -50%; inconclusive = mostly about -30% to -49%; inactive = weaker than that.
experiment: qHTS for Inhibitors of Inflammasome Signaling: IL-1-beta AlphaLISA Primary Screen; details: THP-1 LPS/ATP IL-1B secretion, 16 h; at 57.5 µM, stronger effect = lower value
Method in brief: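 THP-1 cells pretreated 1 hr with compounds (up to 57.5 uM final), then stimulated with LPS (250 ng/mL final) plus ATP (1.25 mM final); secreted IL-1B measured by AlphaLISA after 16 hr, decreased signal indicating inhibition.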
% is set by controls: 0 for no effect and ±100 for the full control effect.

SMILES | activity change
CS(=O)(=O)c1ccc(N2CCN(S(=O)(=O)c3cccs3)CC2)c([N+](=O)[O-])c1 | inactive: -23.1%
COCCN(C(=O)COC(=O)c1ccc(-c2ccccc2)cc1)c1c(N)n(Cc2ccccc2)c(=O)[nH]c1=O | inconclusive: -38.7%
O=C(Nc1ccc(F)cc1F)N1CCCN(c2ccc(C(F)(F)F)cn2)CC1 | inconclusive: -31.9%
Cc1ccc(C2C3=C(NCCN=C3c3ccccc3)C(=O)N2c2ccccc2)cc1 (configuration not stated) | active: -63.4%
OC(CNCCc1ccc(Cl)cc1Cl)COc1ccccc1 (configuration not stated) | active: -91.8%
COc1ccc(CNC(=O)CNC(C)c2ccc(F)cc2)cc1 (configuration not stated) | inconclusive: -33.7%
COc1ccc(C(=O)Nn2c(SCC(=O)NC3CCCCC3)nc3ccccc3c2=O)cc1 | inconclusive: -30%
COC(=O)[C@]1(CC(C)C)N[C@H](c2ccc(-c3ccc(Cl)c(Cl)c3)cc2)[C@@H]2C(=O)N(C)C(=O)[C@@H]21 | inconclusive: -34.4%
COc1ccc(C(C)(C)C)cc1NC(=O)Nc1ccc2c(c1)OCO2 | inconclusive: -39.9%
COc1ccc(NS(=O)(=O)c2cccc(NC(=O)c3ccc(S(=O)(=O)N4CCCCCC4)cc3)c2)cc1 | inactive: -3.22%
CN(C)CC(NC(=O)c1cccc(S(=O)(=O)Nc2ccc3c(c2)OCO3)c1)c1ccccc1 (configuration not stated) | inconclusive: -42%
COc1ccc(N2CCN(C(c3ccccc3OC)c3nnnn3C3CCCC3)CC2)cc1 (configuration not stated) | inconclusive: -37.8%
O=C(C1CC=CCC1)N1CCC(CO)(Cc2ccc(Cl)cc2)CC1 (configuration not stated) | inconclusive: -41.7%
CCC(C)(C)NC(=O)CCCSc1nc2ccccc2[nH]1 | inactive: 0%
CCCN(C1CCS(=O)(=O)C1)S(=O)(=O)c1ccc(F)cc1 (configuration not stated) | inactive: 17.8%
Cc1c(NC(=O)COC(=O)C23CC4CC(CC(O)(C4)C2)C3)c(=O)n(-c2ccccc2)n1C | inactive: -13.3%
Cc1ccc2c(c1)C1C[N+](C)(CC(=O)c3ccccc3)CCC1N2C(=O)c1ccccc1Cl (configuration not stated) | inconclusive: -36%
COc1ccc(-n2cc(-c3ccccc3)[nH]c2=S)c(OC)c1 | inconclusive: -36.5%
O=C(Nc1cccc(F)c1)c1ccc(-c2cccnc2)c2ccoc12 | inconclusive: -32.1%
COc1c(C)cc(C(=O)C2CCCN(C(=O)c3ccc4[nH]ccc4c3)C2)cc1C (configuration not stated) | inactive: -12.3%
Cc1n[nH]c(=O)c2c(NC(=O)CSc3nc4ccccc4c(=O)n3CCCOC(C)C)oc(C)c12 | inconclusive: -36.6%

SMILES | activity change
CC(C)(C)CC(C)(C)NCC(O)COc1c(F)cc(Br)cc1F (configuration not stated) | inconclusive: -30.8%
CCOC(=O)/C(=C/c1ccc(OC(F)F)cc1)C1=Nn2c(nnc2-c2ccc(Cl)cc2)SC1 | active: -97.8%
CCOC(=O)COc1ccc2c(c1)C(=O)CC(C)(C)O2 | inactive: 5.87%
CCN(C(=O)COC(=O)c1ccc(-n2c(C)ccc2C)cc1)c1c(N)n(Cc2ccccc2)c(=O)[nH]c1=O | inconclusive: -45.7%
O=C(OCCNC(=O)c1ccc2ccccc2n1)c1cccnc1 | inactive: -2.6%
O=C(CCOc1ccccc1F)N1CCN(c2ccccc2O)CC1 | inactive: 13.7%
CCOc1ccc(CC(=O)Nc2cccc(-c3ccc4nnc(C)n4n3)c2)cc1 | inactive: -12.2%
COc1cc(C(=S)N2CCN(C)CC2)ccc1OCC(=O)NCc1ccccc1 | inconclusive: -49.2%
Cc1cc(C(=O)CCl)c(C)n1Cc1ccco1 | active: -97%
Cc1ccc2c(c1)[C@H]1[C@H](CO2)[C@H](c2ccccc2)[C@]2(C)C(=O)Nc3cc(F)ccc3C(=O)N12 | inconclusive: -40.2%
CCCCCCCNC(=O)C1(CC2CC(c3cccc(Br)c3)=NO2)CCN(C(=O)c2cc(OCC)c(OCC)c(OCC)c2)CC1 (configuration not stated) | inactive: -24.2%
COc1ccccc1NC(=O)CSc1nnc(COc2ccc(Cl)cc2)n1Cc1ccco1 | inconclusive: -32.4%
CN(C)c1cccc(-c2nnc(SCCCC#N)o2)c1 | inactive: -19%
O=C(NCc1ccc2c(c1)OCO2)C12CN(Cc3ccccc3)CC1C(c1cccc([N+](=O)[O-])c1)=NO2 (configuration not stated) | inconclusive: -33.9%
CCN(CC)c1nc(Nc2ccc(Cl)cc2)nc(OCC#N)n1 | inconclusive: -30.8%
C[C@H](CO)N1C[C@H](C)[C@@H](CN(C)S(=O)(=O)c2ccccc2)Oc2ccc(NS(=O)(=O)c3cn(C)cn3)cc2C1=O | inactive: 12.7%
N#C/C(=C/c1ccc(Br)s1)C(=O)NCCc1c[nH]c2ccccc12 | inconclusive: -47.4%
Cc1cc(/C=C(\C#N)C(=O)NCCc2c[nH]c3ccccc23)c(C)n1C | inconclusive: -36.8%
COc1ccccc1N1CCN(c2ccc(Cl)nn2)CC1 | inconclusive: -40.5%
CCCCCCCn1ccc(=N)cc1 | inconclusive: -40.3%
Cn1c(=O)c2cc(S(=O)(=O)Nc3cccc(F)c3)ccc2n(C)c1=O | inconclusive: -38.4%

SMILES | activity change
COc1ccc(Nc2c3c(nc4c(-c5ccccc5)c(C)nn24)CCC3)cc1 | inactive: 0%
CCOc1ccccc1Oc1c(C)oc2c(CN3CCN(CCO)CC3)c(O)ccc2c1=O | inactive: 5.33%
Cc1ccc(CC(=O)NC2CCN(Cc3ccccc3)CC2)cc1 | inactive: 4.9%
CN(CC(=O)Nc1ccc(Cl)c(C(F)(F)F)c1)C(=O)c1ccc(N2CCOCC2)c([N+](=O)[O-])c1 | inconclusive: -36.6%
CCCCN1C(=N)N([C@@H](C)CN2CCC[C@H]2CN2C(N)=NC[C@H]2C(C)C)C[C@H]1[C@H](C)CC | inconclusive: -30.2%
CSc1ccccc1OC1CCN(Cc2ccccc2)CC1 | active: -82.1%
COc1ccccc1CNC(=O)[C@H](C)N1C(=O)N2CCc3c([nH]c4ccccc34)[C@@]2(C)C1=O | inactive: -3.57%
COc1cccc(NC(=O)c2cc3ccccc3o/c2=N\O)c1 | inconclusive: -47.1%
COC(=O)[C@]1(C)N[C@H](c2ccc(-c3ccc(Cl)c(Cl)c3)cc2)[C@@H]2C(=O)N(C)C(=O)[C@@H]21 | inconclusive: -46.3%
OCCNCCOc1ccccc1-c1ccccc1 | inconclusive: -42.3%
COc1ccc(N(C)C(=O)c2cc3c(s2)-c2ccccc2S(=O)(=O)C3)cc1 | inconclusive: -44.1%
Cc1ccc(S(=O)(=O)N(CC(=O)N2CCc3ccccc3C2)c2ccc(Cl)c(Cl)c2)cc1 | inconclusive: -30.9%
CCc1cc(=O)oc2cc(C)cc(OCC(=O)NCCc3c[nH]c4ccccc34)c12 | inconclusive: -35.3%
Clc1ccc2[nH]c3c(N4CCC5(CC4)OCCO5)ncnc3c2c1 | inconclusive: -35.3%
CN(C)S(=O)(=O)c1cccc(NC(=O)COc2ccccc2C(=O)Nc2ccccc2)c1 | inconclusive: -38.7%
Clc1ccc(C(c2nnnn2CCc2ccccc2)N2CCSCC2)cc1 (configuration not stated) | inconclusive: -48.3%
O=C(C1=C[C@@H](c2csc3ccccc23)C[C@@H](OCc2ccc(CO)cc2)O1)N1CCN(Cc2ccc3c(c2)OCO3)CC1 | inconclusive: -43.8%
NCc1ccc(S(N)(=O)=O)cc1 | inconclusive: -47.5%
CN(C)C(CNC(=O)c1cccc(S(=O)(=O)N2CCc3ccccc3C2)c1)c1ccccc1 (configuration not stated) | inactive: -16.7%
O=C(OCc1nc(-c2ccccc2Cl)no1)c1ccco1 | inactive: 6.21%
CSc1nc(NCc2ccccc2)c2c3c(sc2n1)CN(C)CC3 | inconclusive: -36.2%

SMILES | activity change
CCOC(=O)C=Cc1ccc(C(=O)OCC)[nH]1 | inactive: 12.1%
Cn1c(=O)c2cc(NC(=O)Cc3ccccc3F)ccc2n1Cc1ccc(Cl)cc1 | inconclusive: -37%
Cc1ccc(-n2ncc(C(=O)Nc3ccc(Cl)cc3)c2C2CCNCC2)cc1C | active: -73%
COc1ccc2c(CC(=O)Nc3nc(C)cs3)coc2c1 | inconclusive: -33.3%
Cc1c(Cl)c([N+](=O)[O-])nn1CC(=O)NCC(C)C | inconclusive: -30.9%
Nc1[nH]c2cc([N+](=O)[O-])ccc2c1-c1ccccn1 | inactive: -11.3%
Cc1ccc(NC(=O)c2ccc(CN3CCc4ccccc4C3)cc2)cc1 | inconclusive: -44.8%
CCN1CCN(c2ncnc3scc(-c4ccc(C)c(C)c4)c23)CC1 | inconclusive: -45.3%
O=C1CC(c2ccco2)Cc2nc(Nc3ccc(F)cc3)ncc21 (configuration not stated) | inconclusive: -40%
CN(C)C(=O)c1cccc(-c2cnc3c(NC=O)cc(-c4ccc(F)cc4)cn23)c1 | inconclusive: -39.7%
Cc1ccc(S(=O)(=O)NCC(c2ccccc2)N2CCCCC2)cc1 (configuration not stated) | inconclusive: -35.4%
CC[N+](CC)(CC)CCOc1cccc(OCC[N+](CC)(CC)CC)c1OCC[N+](CC)(CC)CC | inactive: 74.9%
Cc1ccc(NC(=O)CN(C)C(=O)COc2ccc(C(=O)c3ccc(F)cc3)cc2)cc1 | inactive: -23%
Cc1ccc(-c2nn(CC(=O)NC(C)c3ccccc3)c(=O)c3ccccc23)cc1 (configuration not stated) | inconclusive: -35.9%
N#CC1=C(N)C(C#N)(C#N)C2(CCC3(CC2)OCCO3)C2CC3(CC=C12)OCCO3 (configuration not stated) | inactive: -12.8%
CNc1cncc(-c2cccc(C(=O)NC3CC3)c2)n1 | inactive: -13.7%
CC(C)(C)c1csc(NC(=O)c2ccc(Cl)s2)n1 | inactive: -23%
Cc1ccc(NC(=O)CN2CCCCCC2)cc1Br | inconclusive: -30.1%
COc1ccc(/C=N/NC(=O)c2nnn(-c3nonc3N)c2CN(C)c2ccccc2)cc1 | inconclusive: -32.4%
